{"source": "PubChem BioAssay AID485294", "about": "(National Center for Advancing Translational Sciences (NCATS), 2010)", "note": "Out of some 370,000 compounds screened, about 150 (0.041%) were called active. The inconclusive results got no clear call from the source; some entries with a clear call stand among them for comparison. Calls come from the whole dose curve; as a rule, active = well fitted inhibition curve with a large enough effect; inconclusive = small, poorly fitted or top-dose-only effect; inactive = flat fitted curve, though single readings scatter. No potency is given beside an inconclusive call; the fits are too rough. Potency is the fitted concentration of half-maximal effect; tags give direction and shape of the fitted curve."}
{"molecular_target": "Beta-lactamase (Escherichia coli (strain K12)) (UniProt P00811)", "sequence (P00811 whole entry, looked up)": "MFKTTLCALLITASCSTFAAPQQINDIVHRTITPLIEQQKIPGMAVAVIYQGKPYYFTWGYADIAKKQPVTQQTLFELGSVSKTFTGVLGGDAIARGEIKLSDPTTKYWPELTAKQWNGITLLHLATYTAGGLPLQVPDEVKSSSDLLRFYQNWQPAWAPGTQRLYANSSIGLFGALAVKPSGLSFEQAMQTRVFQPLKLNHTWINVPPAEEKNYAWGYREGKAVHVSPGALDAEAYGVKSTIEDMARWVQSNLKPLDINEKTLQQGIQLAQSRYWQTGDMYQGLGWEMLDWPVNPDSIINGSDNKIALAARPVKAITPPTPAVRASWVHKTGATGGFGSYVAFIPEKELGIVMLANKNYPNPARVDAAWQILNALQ", "test": "qHTS Inhibitors of AmpC Beta-Lactamase (assay with detergent); note: nearly all actives have a fitted effect of over 25% in size;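 for activity change, negative = inhibition: 0% = no-compound wells and -100% = no-enzyme wells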", "settings": "AmpC hydrolysis of nitrocefin, absorbance 480 nm, 0.01% Triton; activity change, negative = inhibition: at 114 µM (top of the series)", "method_in_brief": "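20 mM phosphate pH 7.0 + 0.01% (detergent screen) or 0.0001% Triton X-100; 5.3 nM AmpC reagent; cpd preinc 15 min RT; nitrocefin (800 uM stock) to start; A480 q20 s × 4 min; Activity was normalised to no-enzyme and no-compound control wells.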"}
{"smiles": "Cc1ccc(NC(=O)c2cccc3c2C(=O)N(C2CCCCC2)C3)c(Cl)c1", "activity change, negative = inhibition": "inactive: -12.3%"}
{"smiles": "O=S(=O)(/C=C/c1ccccc1)Nc1ccc2c(c1)OCO2", "Potency": "inconclusive [inhibitor, partial curve, poor fit]"}
{"smiles": "Cc1ccc(/C=C(\\C#N)C(=O)NC(C)c2ccccc2)o1", "note": "(stereo not given)", "Potency": "inconclusive [inhibitor, full curve, poor fit]"}
{"smiles": "N#CCCn1cc(C(=O)Nc2ccc([N+](=O)[O-])cc2)c(-c2ccccc2)n1", "Potency": "inconclusive [inhibitor, partial curve]"}
{"smiles": "O=C(O/N=C1\\CCCc2ccccc21)c1cccc(Cl)c1", "Potency": "inconclusive [inhibitor, full curve]"}
{"smiles": "Cc1cccc(OCC(=O)NCC(=O)N/N=C/c2cc(Br)cc(Br)c2O)c1", "activity change, negative = inhibition": "inactive: -6.61%"}
{"smiles": "CCNC(=O)C(=O)NCC(c1cccs1)S(=O)(=O)c1ccc(C)cc1", "note": "(stereo not given)", "activity change, negative = inhibition": "inactive: -6.21%"}
{"smiles": "CC(/C=C/c1ccco1)=N\\NC(=O)c1cc(C)[nH]n1", "Potency": "inconclusive [inhibitor, full curve]"}
{"smiles": "CCCN(CC(=O)Nc1ccccc1OC)C(=O)CSc1ccc(Br)cc1C", "Potency": "inconclusive [inhibitor, full curve, poor fit]"}
{"smiles": "COc1ccc(C(=O)Nc2cc3c(cc2N2CCOCC2)n(C)c(=O)n3C)cc1OC", "activity change, negative = inhibition": "inactive: 5.22%"}
{"smiles": "CCOc1ccccc1CNc1ccc(N2CCOCC2)c(C(=O)O)c1", "Potency": "inconclusive [inhibitor, partial curve]"}
{"smiles": "N/C(=N\\OC(=O)c1ccc(F)cc1)c1ccc(Br)cc1", "activity change, negative = inhibition": "inactive: 1.78%"}
{"smiles": "CCOC(=O)CNC(=O)CSc1nc(N(C)C)nc(N2CCOCC2)n1", "Potency": "inconclusive [inhibitor, full curve, poor fit]"}
{"smiles": "CCC(CC)c1nn2c(=O)cc(COc3ccc(NC(=O)c4ccccc4C)cc3)nc2s1", "activity change, negative = inhibition": "inactive: 6.92%"}
{"smiles": "O=C(Cc1ccc(Cl)cc1)NCCCNC(=O)c1cccnc1", "activity change, negative = inhibition": "inactive: -4.55%"}
{"smiles": "O=C(NC(=S)Nc1ccc2c(c1)OCCO2)c1ccccc1", "activity change, negative = inhibition": "inactive: -4.48%"}
{"smiles": "CC1(C)Cc2c(C#N)c(OCC(=O)c3ccc(Cl)cc3)nc(-c3ccoc3)c2CO1", "Potency": "inconclusive [inhibitor, single point]"}
{"smiles": "Fc1ccc2c(c1)C1C=CCC1C(c1cc3c(cc1Br)OCO3)N2", "note": "(stereo not given)", "Potency": "inconclusive [inhibitor, partial curve]"}
{"smiles": "COc1ccc(-c2cc(C(=O)NCC3CCCO3)on2)cc1OC", "note": "(stereo not given)", "Potency": "inconclusive [inhibitor, full curve, poor fit]"}
{"smiles": "CC(C)CCC(=O)N1CCC(N2CCC(C(=O)NCc3ccccn3)CC2)CC1", "Potency": "inconclusive [inhibitor, full curve, poor fit]"}
